This passage reports binding signal results from paper PMC9911399, “Two distinct binding modes provide the RNA-binding protein RbFox with extraordinary sequence specificity”.

Where a chain is given by its changes, count along the chain named. The list shows a part of the results.

First the molecules themselves.
T1: RBFOX1 RRM (Homo sapiens, UniProt Q9NWB1 109-208)
T1 sequence: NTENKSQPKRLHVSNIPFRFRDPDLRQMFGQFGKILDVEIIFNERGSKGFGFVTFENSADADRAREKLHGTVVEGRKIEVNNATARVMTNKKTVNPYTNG

B1: UCGUACU (DNA:RNA)
RNA: GGGAGACCGGAAUUCAGAUUGUCCUCGUACUUUAAAUCCCGUCGUAGCCACCA
DNA 1: CAATCTGAATTCCGGTCTCCC
DNA 2: TGGTGGCTACGACGGGATT
B2: ACAGCUU (DNA:RNA)
RNA: B1 RNA with U25A, G27A, U28G, A29C, C30U
DNA 1: CAATCTGAATTCCGGTCTCCC
DNA 2: TGGTGGCTACGACGGGATT
B3: AAAUUGU (DNA:RNA)
RNA: B1 RNA with U25A, C26A, G27A, A29U, C30G
DNA 1: CAATCTGAATTCCGGTCTCCC
DNA 2: TGGTGGCTACGACGGGATT
B4: GCUGUUA (DNA:RNA)
RNA: B1 RNA with U25G, G27U, U28G, A29U, C30U, U31A
DNA 1: CAATCTGAATTCCGGTCTCCC
DNA 2: TGGTGGCTACGACGGGATT
B5: GGCUAUC (DNA:RNA)
RNA: B1 RNA with U25G, C26G, G27C, C30U, U31C
DNA 1: CAATCTGAATTCCGGTCTCCC
DNA 2: TGGTGGCTACGACGGGATT
B6: UACCUAA (DNA:RNA)
RNA: B1 RNA with C26A, G27C, U28C, A29U, C30A, U31A
DNA 1: CAATCTGAATTCCGGTCTCCC
DNA 2: TGGTGGCTACGACGGGATT
B7: GGGUCCG (DNA:RNA)
RNA: B1 RNA with U25G, C26G, A29C, U31G
DNA 1: CAATCTGAATTCCGGTCTCCC
DNA 2: TGGTGGCTACGACGGGATT
B8: AUCGCUC (DNA:RNA)
RNA: GGGAGACCGGAAUUCAGAUUGUCCAUCGCUCUUAAAUCCCGUCGUAGCCACCA
DNA 1: CAATCTGAATTCCGGTCTCCC
DNA 2: TGGTGGCTACGACGGGATT
B9: GCGCUAG (DNA:RNA)
RNA: B1 RNA with U25G, U28C, A29U, C30A, U31G
DNA 1: CAATCTGAATTCCGGTCTCCC
DNA 2: TGGTGGCTACGACGGGATT
B10: UACAAGU (DNA:RNA)
RNA: B1 RNA with C26A, G27C, U28A, C30G
DNA 1: CAATCTGAATTCCGGTCTCCC
DNA 2: TGGTGGCTACGACGGGATT
B11: GAGAUAG (DNA:RNA)
RNA: B1 RNA with U25G, C26A, U28A, A29U, C30A, U31G
DNA 1: CAATCTGAATTCCGGTCTCCC
DNA 2: TGGTGGCTACGACGGGATT
B12: AGAACCG (DNA:RNA)
RNA: B8 RNA with U26G, C27A, G28A, U30C, C31G
DNA 1: CAATCTGAATTCCGGTCTCCC
DNA 2: TGGTGGCTACGACGGGATT
B13: GUCUGUU (DNA:RNA)
RNA: B8 RNA with A25G, G28U, C29G, C31U
DNA 1: CAATCTGAATTCCGGTCTCCC
DNA 2: TGGTGGCTACGACGGGATT
B14: CCCAAAG (DNA:RNA)
RNA: B1 RNA with U25C, G27C, U28A, C30A, U31G
DNA 1: CAATCTGAATTCCGGTCTCCC
DNA 2: TGGTGGCTACGACGGGATT
B15: UUUUACA (DNA:RNA)
RNA: B1 RNA with C26U, G27U, U31A
DNA 1: CAATCTGAATTCCGGTCTCCC
DNA 2: TGGTGGCTACGACGGGATT
B16: CCGGCUG (DNA:RNA)
RNA: B8 RNA with A25C, U26C, C27G, C31G
DNA 1: CAATCTGAATTCCGGTCTCCC
DNA 2: TGGTGGCTACGACGGGATT
B17: GAGGGGG (DNA:RNA)
RNA: B8 RNA with A25G, U26A, C27G, C29G, U30G, C31G
DNA 1: CAATCTGAATTCCGGTCTCCC
DNA 2: TGGTGGCTACGACGGGATT
B18: CAGCAGA (DNA:RNA)
RNA: B1 RNA with U25C, C26A, U28C, C30G, U31A
DNA 1: CAATCTGAATTCCGGTCTCCC
DNA 2: TGGTGGCTACGACGGGATT
B19: CUGAGAU (DNA:RNA)
RNA: B1 RNA with U25C, C26U, U28A, A29G, C30A
DNA 1: CAATCTGAATTCCGGTCTCCC
DNA 2: TGGTGGCTACGACGGGATT
B20: AGGAUUU (DNA:RNA)
RNA: B8 RNA with U26G, C27G, G28A, C29U, C31U
DNA 1: CAATCTGAATTCCGGTCTCCC
DNA 2: TGGTGGCTACGACGGGATT
B21: CUUCUCC (DNA:RNA)
RNA: B8 RNA with A25C, C27U, G28C, C29U, U30C
DNA 1: CAATCTGAATTCCGGTCTCCC
DNA 2: TGGTGGCTACGACGGGATT
B22: UACGAAU (DNA:RNA)
RNA: B1 RNA with C26A, G27C, U28G, C30A
DNA 1: CAATCTGAATTCCGGTCTCCC
DNA 2: TGGTGGCTACGACGGGATT
B23: UCGAUUG (DNA:RNA)
RNA: B1 RNA with U28A, A29U, C30U, U31G
DNA 1: CAATCTGAATTCCGGTCTCCC
DNA 2: TGGTGGCTACGACGGGATT
B24: ACCGAAC (DNA:RNA)
RNA: B8 RNA with U26C, C29A, U30A
DNA 1: CAATCTGAATTCCGGTCTCCC
DNA 2: TGGTGGCTACGACGGGATT
B25: UGGUCAG (DNA:RNA)
RNA: B1 RNA with C26G, A29C, C30A, U31G
DNA 1: CAATCTGAATTCCGGTCTCCC
DNA 2: TGGTGGCTACGACGGGATT
B26: CCGAAUU (DNA:RNA)
RNA: B1 RNA with U25C, U28A, C30U
DNA 1: CAATCTGAATTCCGGTCTCCC
DNA 2: TGGTGGCTACGACGGGATT
B27: UCACCGC (DNA:RNA)
RNA: B8 RNA with A25U, U26C, C27A, G28C, U30G
DNA 1: CAATCTGAATTCCGGTCTCCC
DNA 2: TGGTGGCTACGACGGGATT
B28: UAUGUGC (DNA:RNA)
RNA: B8 RNA with A25U, U26A, C27U, C29U, U30G
DNA 1: CAATCTGAATTCCGGTCTCCC
DNA 2: TGGTGGCTACGACGGGATT
B29: UGCCGAC (DNA:RNA)
RNA: B8 RNA with A25U, U26G, G28C, C29G, U30A
DNA 1: CAATCTGAATTCCGGTCTCCC
DNA 2: TGGTGGCTACGACGGGATT
B30: AGUUUGC (DNA:RNA)
RNA: B8 RNA with U26G, C27U, G28U, C29U, U30G
DNA 1: CAATCTGAATTCCGGTCTCCC
DNA 2: TGGTGGCTACGACGGGATT
B31: GCAGCGA (DNA:RNA)
RNA: B8 RNA with A25G, U26C, C27A, U30G, C31A
DNA 1: CAATCTGAATTCCGGTCTCCC
DNA 2: TGGTGGCTACGACGGGATT

This assay concerns the target T1, RBFOX1 RRM. Put plainly: EMSA; HiTS-Eq, 1 nM pool, 10 min; buffer printed only for the single-RNA assays: 10 mM Tris pH 7.5, 150 mM NaCl, 3.4 mM EDTA, 0.001% NP-40, 30 C. The following applies: tags: His6 N-terminal (pET28a); label: 5' 32P. The procedure, abridged:
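Purified RbFox RRM, wild type or mutant, was incubated for 10 min in 50 µL with 1 nM of a 5′-radiolabelled RNA pool carrying 7 randomized nucleotides, whose flanks were annealed to DNA oligonucleotides, over a series of increasing protein concentrations. Unbound RNA was resolved on 8% native PAGE, cut out, reverse-transcribed, barcoded by PCR and sequenced on an Illumina HiSeq 2500. Relative association constants were derived from changes in read counts for each RNA species versus the control reaction and normalised to the cognate motif.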
On the technique in general: In EMSA bound probe runs differently from free probe, usually more slowly.
As to B1, the binding signal was 0.0101 KA relative to UGCAUGU.

On to B2, for which the binding signal is 0.00515 KA relative to UGCAUGU.

On to B3, for which the binding signal is 0.00588 KA relative to UGCAUGU.

For the molecule B4, the binding signal is 0.0113 KA relative to UGCAUGU.

On to B5, for which the binding signal was 0.00526 KA relative to UGCAUGU.

As for B6, the binding signal was 0.000874 KA relative to UGCAUGU.

For the molecule B7, the binding signal was 0.0257 KA relative to UGCAUGU.

Consider B8, for which the binding signal is 0.00655 KA relative to UGCAUGU.

Regarding B9, the binding signal was 0.0263 KA relative to UGCAUGU.

Consider B10, for which the binding signal was 0.00644 KA relative to UGCAUGU.

For the molecule B11, the binding signal is 0.0128 KA relative to UGCAUGU.

Turning to B12, the binding signal was 0.00181 KA relative to UGCAUGU.

As for B13, the binding signal was 0.0246 KA relative to UGCAUGU.

As to B14, the binding signal was 0.00837 KA relative to UGCAUGU.

As for B15, the binding signal was 0.00617 KA relative to UGCAUGU.

Take B16: the binding signal is 0.0202 KA relative to UGCAUGU.

As for B17, the binding signal was 0.0168 KA relative to UGCAUGU.

In the case of B18, the binding signal is 0.00659 KA relative to UGCAUGU.

As to B19, the binding signal was 0.0144 KA relative to UGCAUGU.

On to B20, for which the binding signal is 0.0177 KA relative to UGCAUGU.

For the molecule B21, the binding signal is 0.0114 KA relative to UGCAUGU.

B22: the binding signal was 0.0095 KA relative to UGCAUGU.

In the case of B23, the binding signal is 0.0206 KA relative to UGCAUGU.

In the case of B24, the binding signal is 0.00249 KA relative to UGCAUGU.

In the case of B25, the binding signal is 0.0151 KA relative to UGCAUGU.

With B26, the binding signal was 0.00468 KA relative to UGCAUGU.

In the case of B27, the binding signal was 0.0036 KA relative to UGCAUGU.

For B28, the binding signal is 0.0265 KA relative to UGCAUGU.

Regarding B29, the binding signal was 0.0163 KA relative to UGCAUGU.

As for B30, the binding signal is 0.0183 KA relative to UGCAUGU.

Consider B31, for which the binding signal was 0.012 KA relative to UGCAUGU.
